The values below come from PMC7688343, “GDF6-CD99 Signaling Regulates Src and Ewing Sarcoma Growth” (Cell reports, 2020).

Chains of the proteins cited; added tags and fusions are not shown.
UniProt P41240: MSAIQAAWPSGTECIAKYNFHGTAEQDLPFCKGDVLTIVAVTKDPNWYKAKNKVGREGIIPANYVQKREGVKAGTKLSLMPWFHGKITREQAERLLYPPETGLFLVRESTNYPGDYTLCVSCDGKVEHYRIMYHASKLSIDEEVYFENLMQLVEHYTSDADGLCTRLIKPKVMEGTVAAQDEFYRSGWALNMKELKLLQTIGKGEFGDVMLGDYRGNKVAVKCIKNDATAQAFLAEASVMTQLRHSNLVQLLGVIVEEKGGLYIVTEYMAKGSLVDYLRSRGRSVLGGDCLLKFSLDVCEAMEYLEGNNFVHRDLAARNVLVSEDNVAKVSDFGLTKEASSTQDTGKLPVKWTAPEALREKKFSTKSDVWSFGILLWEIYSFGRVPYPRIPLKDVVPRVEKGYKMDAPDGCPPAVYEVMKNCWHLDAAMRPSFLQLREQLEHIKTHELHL

Test [1] deals with T1, C-terminally FLAG-tagged human CD99 (human) (UniProt P14209).
T1 sequence: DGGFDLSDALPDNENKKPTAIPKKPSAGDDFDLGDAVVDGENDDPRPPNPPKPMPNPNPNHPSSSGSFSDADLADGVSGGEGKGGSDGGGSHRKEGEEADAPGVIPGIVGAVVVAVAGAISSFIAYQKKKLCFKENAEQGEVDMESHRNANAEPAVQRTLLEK
The test is described as follows: co-IP; C-terminally FLAG-tagged human CD99, mouse CD99 or human CD99L2 transfected in 293T cells; anti-FLAG immunoprecipitation, anti-CSK immunoblot of endogenous CSK.

In test [2] the target is T2, C-terminally FLAG-tagged mouse CD99 (mouse) (UniProt Q8VCN6).
T2 sequence: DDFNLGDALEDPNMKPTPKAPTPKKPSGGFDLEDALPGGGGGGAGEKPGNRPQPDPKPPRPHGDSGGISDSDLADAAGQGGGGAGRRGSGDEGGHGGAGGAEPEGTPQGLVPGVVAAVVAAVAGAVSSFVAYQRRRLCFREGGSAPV
The description is as above.

Test [3] addresses T3, C-terminally FLAG-tagged human CD99L2 (human) (UniProt Q8TCZ2).
T3 sequence: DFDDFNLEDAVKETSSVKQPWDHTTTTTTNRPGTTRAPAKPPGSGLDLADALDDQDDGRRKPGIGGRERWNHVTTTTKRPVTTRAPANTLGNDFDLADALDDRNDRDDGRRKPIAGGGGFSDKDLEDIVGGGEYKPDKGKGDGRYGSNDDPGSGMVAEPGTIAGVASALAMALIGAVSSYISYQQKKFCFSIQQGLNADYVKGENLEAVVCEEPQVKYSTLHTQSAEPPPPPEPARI
The test is described as above.

Test [4] addresses T4, GFP-human CD99 intracellular domain (148-185) (human) (UniProt P14209).
T4 sequence: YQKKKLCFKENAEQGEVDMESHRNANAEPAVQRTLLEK
The test is described as follows: co-IP; GFP fusions of CD99 intracellular fragments transfected in 293T cells; anti-GFP immunoprecipitation, anti-CSK immunoblot of endogenous CSK.

For test [5], the target named is T5, GFP-human CD99 intracellular domain lacking the YQKKKLCF sequence (human) (UniProt P14209).
T5 sequence: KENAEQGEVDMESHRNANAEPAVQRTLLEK
Described as above.

For a further test, the target named is T6, GFP-YQKKK (human).
T6 sequence: YQKKK
The description is as above.

In another test the target is T7, GFP-YQKKKLCF (human).
T7 sequence: YQKKKLCF
Described as above.

These are yes or no findings as the source states them, for the method shown. In cells and extracts the contact can be indirect. Some results given as binding are weak or reduced against the parent protein; the word gives no strength. Tags and fused reporters may be left off the sequences shown.

Regarding “endogenous CSK (293T cells) (from UniProt P41240 1-450) (enzyme)”, the binding result in test [1] was “binds”; in test [2], “binds”; in test [3], “binds”; in test [4], “binds”; in test [5] it was “no binding”; with GFP-YQKKK (human) it was “binds”. Further, the binding result with GFP-YQKKKLCF (human) is “binds”.
